{
  "source": "PubChem BioAssay (NCI)",
  "key": {"RPMI-8226 leukemia": {"system": "RPMI-8226 leukemia", "experiment": "NCI-60 one-dose screen, 48 h (100 = growth as untreated, 0 = no growth, -100 = all killed)", "conditions": "25 µM"}, "OVCAR-8 ovarian": {"system": "OVCAR-8 ovarian", "experiment": "NCI-60 one-dose screen, 48 h (100 = growth as untreated, 0 = no growth, -100 = all killed)", "conditions": "0.25 µM"}},
  "note": "A structure can be active in one record and inactive in another.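 Plates (96-well) were seeded with cells, treated with compound at one concentration, and incubated for 48 hours before percent growth was determined.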 For part of its entries the source gives two or more results. This is not the full list of results. The source may hold further records. For some assays here: The screen tested this drug many times, at its own concentration, as given; each value is one run. Marks such as (2×) count equal records among those shown. Some values that stand alone complete this part of the results. The source made the active and inactive calls. Rule for the calls: active = growth percent below 10; inactive = the rest.",
  "data": [
    {"smiles": "COc1cccc2c1C(=O)c1c(O)c3c(c(O)c1C2=O)C[C@@](O)(C(=O)CO)C[C@@H]3OC1CC(N)C(O)C(C)O1", "note": "(stereo partly specified)", "values": [
      {"measurement": "growth", "setting": "RPMI-8226 leukemia; runs of 1992", "result": "active: -16.7, -17.7, -23.4, -24.5, -22.3, -25, 5.1, -7.47, -21.5, -11.2, -12.5, -21, -45.9, -17.5 (2×), -10.8, -12.9 (3×), -21.6, -29.3 (2×), -31.4, 1.02, -8.57, -20.2, 3.09, -17.2, -25.9, 4.18, -5.16, -26.6, 7.83, -12.4 (2×), -52.5, -5.04, -8.72, 7.3, -19, 3.89, 5.11, 7.24, -24, -4.06, 9.47, -8.27, -18.3, -35.3, 6.39, -12, -1.89, -13.3, 4.01, -38.4, -28.3, -0.352, -14.5, -14.4, -25.8, -7.67, -25.5, -22.8, -18.1, -17.9, -29.7, 3.06, -16.6, 8.25, -11.6, -0.408, -37.1, -19.3, -23.8, -28.6, -49, -33.1, 0.652, -2.5, -31.2, -21.3, -10.2, -22.9, -10.5, -10.9, -44.9, -30.6, -1.66, -10.4, -23.7, 7.76, -56.2, -25.1, -15.9, -30.1, -20.5, -6.33, -22.7, -40.3, -18.7 (2×), -22.1, -8.51, -29.2, -18.5, -72.2, -28.7 (2×), -33.8, 2.02, -15.2, -2.19, 1.62, -33, -6.03, 1.82, -22.5, -17.4% and inactive: 29.4%, 15.8%"},
      {"measurement": "growth", "setting": "RPMI-8226 leukemia; runs of 1993", "result": "active: -18.1, -4.44, 1.84, -39.5, -30.8, -12 (2×), -21.6, 4.31, -0.754, -35.1, -41, -19.4, -21.4, -25.9, 7.27, -24.3, -39.4, -15.8, -26.5, -41.1, -17.3, -44.1, -28.9, -41.6, -24.2, -36, -38.9, -49.5, -14.3, -44.5, -23.6, 8.78, 0.0457% and inactive: 15.2, 25.4, 13.4, 17.7, 36.7, 17, 16.8, 27.7, 19.9%"},
      {"measurement": "growth", "setting": "RPMI-8226 leukemia; runs of 1994", "result": "active: -9.91, -35.7, -32.4, -38.7, -5.39, -12.6, -10.1, -26, 1.83, -50.8, -29.2, 8.02, -30.7, 0.155, -57.5, -26.5, -23.2, -45.3, -7.43, -15.3, -13.1, -20.4, 1.29, -12, -16.7, 7.3, -2.08, -26.3% and inactive: 103%, 29.8%"},
      {"measurement": "growth", "setting": "RPMI-8226 leukemia; runs of 1995", "result": "active: -21.4, -32.7, -13.1, -29, -38.1, -8.77, -24.7, -36.6, 0.861, -14.3, -33, -31.2, -39.9, -24.2, -30.2, 1.62, -37.3, 5.94, -9.67, -18.6, -48.1, -26.4, -29.2, 7.84, -26.7, -10.8, -49.3, -36, -23.6, -17, -48.2, -28.1, -51.2% and inactive: 44.3%, 30.4%"},
      {"measurement": "growth", "setting": "RPMI-8226 leukemia; runs of 1996", "result": "active: -49.4, -2.37, -38, -2.4, -29.9, -25.4, -17.7, -20.2, -31.3 (2×), -17.4, -43.8, -41.7, -31.6, -24.5, -67.6, -37.8, -50.1, -14.8, -28.1, -27.2, -44.7, -19.7, -4.58, -11.7, -10.6, -32.3, -23, -40.4, -41.8, -9.83, -35.3, -29.2, -20.3, -19.3, -32.6, -25.7, 4.23, -47.6, -44.8, -21.6, -6.03% and inactive: 17.1, 113, 25.6, 26.2, 13.9, 10.4%"},
      {"measurement": "growth", "setting": "RPMI-8226 leukemia; runs of 1997", "result": "active: -6.61, -10.2, -31.6, -21.1, -25, -41.4, -10.3, 8.16, -20.8, -3.96, -3.31, -23, 9.38, -31.4, -28, -28.4, -54.7, -22.5, -24, 5.45, -16.1, -16.4, -4.5, -22.8, -22.1, -32.6, -11.2, -6.5, 4, -7.39, -12.3, -36.2, -8.29, -24.4, -26.4, -42% and inactive: 23, 41, 96.8, 58.7, 16.1%"},
      {"measurement": "growth", "setting": "RPMI-8226 leukemia; runs of 1998", "result": "inactive: 43.2%, 91.5%, 10.2% and active: -5.6, -13.5, 8.02, -74.8, -11.6, -12.5, -49.4, -62.2, -29.4, -48.5, -19, -40.4%"},
      {"measurement": "growth", "setting": "RPMI-8226 leukemia; runs of 1999", "result": "active: -1.08, -29.6, -29.1, -64.6, 7.42, 0.195, -80.5, -34.2, 3.92, 4.13, -59.6, -20.5, 5.86, 6.44%"},
      {"measurement": "growth", "setting": "RPMI-8226 leukemia; runs of 2000", "result": "active: -75%, 8.67%, -28.6%"},
      {"measurement": "growth", "setting": "OVCAR-8 ovarian; runs of 2006", "result": "active: -1.27%"},
      {"measurement": "growth", "setting": "OVCAR-8 ovarian; runs of 2007", "result": "inactive: 40.5, 52.6, 33.7, 37.4, 43.1, 48.4, 44.6, 44.9, 42.9 (3×), 44.8, 41, 45.9, 30.5, 39.4 (2×), 42, 33.6, 41.1, 33.8, 37.5 (2×), 48.2, 49.6, 37.8, 34.7, 47, 31.5, 47.5, 46.4, 50.6, 51.5, 54.3, 42.8, 39.1, 42.4, 52.9%"}
    ]}
  ]
}
